Consider 87 compounds from PubChem BioAssay AID463173 (ICCB-Longwood Screening Facility, Harvard Medical School, 2010).

Hit rate of the full screen: of about 52,000 compounds, about 4,300 (8.3%) were called active. Rule as the data show it: active = survival mostly below about 52% (no sharp cut-off); inactive = mostly above about 56%. The list shows a part of the results.

This assay has as its system DeltatarO mutant. Nature of the assay: S. aureus survival, RN4220 and DeltatarO strains – OD600, teichoic acid synthesis inhibitors, primary screen (AID 463173). The following applies: S. aureus RN4220 wild type/DeltatarO growth, OD600, 18 h, active compounds read low, screened at 18.75 µg/mL (by protocol).
For the compound `Cc1nn(C)c2c1c(-c1ccccc1)cc(=O)n2Cc1ccccc1C#N`, the survival is inactive: 134%.

For `CCOC(=O)C1CCCN(c2c(C(=O)c3ccc(OCC)cc3)cnc3ccccc23)C1` (configuration not stated), the survival is active: -3%.

For `CCN1CCN(CCCNC(=O)c2cnn(-c3ccccc3Cl)c2C2CCN(C(=O)OC(C)(C)C)CC2)CC1`, the survival is inactive: 118%.

With `COc1ccc(-n2ncc(C(=O)Nc3ccc4c(c3)OCO4)c2C2CCN(C(=O)OC(C)(C)C)CC2)cc1`, the survival is inactive: 85%.

For the compound `Cc1ccc(NC(=O)Cn2cc(S(=O)(=O)Cc3cccc(Cl)c3)c3ccccc32)cc1C`, the survival is inactive: 74%.

For the compound `COc1ccc(C2=C(C)C(=NCCCN3CCN(c4cc(Cl)ccc4C)CC3)NS2(=O)=O)cc1`, the survival was inactive: 59%.

As to `O=C(NCc1ccccc1Br)c1ccc2c(c1)nc1n2CCOC1`, the survival is active: -1%.

As for `Cn1c(-c2ccccc2)cnc1NCc1ccccc1O`, the survival was active: 46%.

As to `N#Cc1nc2c(-c3nc4ccccc4s3)c(N)n(Cc3ccccc3)c2nc1C#N`, the survival was inactive: 91%.

Consider `O=C(CCC1N=C2c3ccccc3N=C(SCc3ccccc3F)N2C1=O)NCc1ccccc1` (configuration not stated), for which the survival was inactive: 69%.

Regarding `Cc1ccc(CNC(=O)CN2C(=O)CSc3c2c(C)nn3-c2ccccc2)cc1`, the survival was inactive: 89%.

Regarding `COc1ccc(C)cc1NC(=O)CCNC(=O)Cn1ccc2ccccc2c1=O`, the survival is inactive: 63%.

Regarding `COc1ccc(NC(=O)c2oc3ccccc3c2NC(=O)Cc2coc3cc(C)ccc23)cc1`, the survival was inactive: 70%.

With `CCOC(=O)c1c(C)[nH]c(CCC(=O)NCc2cccc(C)c2)c1C`, the survival was inactive: 70%.

For `COCCCn1c(=N)c(C(=O)NCc2cccnc2)cc2c(=O)n3cccc(C)c3nc21`, the survival is inactive: 62%.

Turning to `CN1C(=O)Cc2cc(S(=O)(=O)CCC(=O)Nc3ccc(Cl)c(C(F)(F)F)c3)ccc21`, the survival is inactive: 91%.

For `Cc1ccccc1NS(=O)(=O)c1ccc2[nH]cc(C(=O)NC3CCCCC3)c(=O)c2c1`, the survival is inactive: 85%.

As for `COc1cccc(-c2noc(COc3ccc(C(C)(C)C)cc3)n2)c1`, the survival was inactive: 88%.

As to `Cc1ccc(NC(=O)c2oc3ccc(S(=O)(=O)N4CCCCCC4)cc3c2C)c(C)c1`, the survival is inactive: 124%.

Take `CC1(C)c2ssc(=S)c2-c2ccccc2N1C(=O)CSC#N`: the survival is inactive: 106%.

As for `CCn1c(=O)c2cc(C(=O)NC3CCC(C)CC3)sc2c2ccccc21` (configuration not stated), the survival was inactive: 75%.

In the case of `CC(C)/C=N/NC(=O)c1ccc2c(c1)NC(=O)C(C)(C)O2`, the survival was inactive: 85%.

As for `COC(=O)C(NC(=O)c1ccccc1)=C1C=C(C)OC(C)=C1`, the survival was inactive: 98%.

In the case of `CN(C(=O)c1cc2c(Cl)nc3ccccc3c2s1)c1cccc(C(F)(F)F)c1`, the survival was inactive: 72%.

As for `COc1cccc(NC(=O)N(Cc2c[nH]c3ccccc23)C2CCCCCC2)c1`, the survival is inactive: 46%.

`CCn1c(C(=O)Nc2c(C)cccc2C)cc2sc(Cl)cc21`: the survival was active: 60%.

For `O=C(Cn1nc(-c2ccccc2)c2c(c1=O)CCCC2)Nc1ccc(F)c(Cl)c1`, the survival was active: 23%.

As to `CCOC(=O)c1c(C)oc2nc(C)nc(N3CCN(c4cc(Cl)ccc4C)CC3)c12`, the survival is inactive: 96%.

Take `CCOC(=O)c1cc(OC(=O)c2cc(OC)c(OC)c(OC)c2)n(-c2ccccc2)n1`: the survival is active: 54%.

Turning to `CCc1ccccc1N(C)C(=O)Cn1cnc2sc(C)c(S(=O)(=O)N3CCC(C)CC3)c2c1=O`, the survival is inactive: 71%.

For the compound `CCOc1ccc(-n2c(SCC(=O)Nc3cc(C)on3)nc3c([nH]c4ccccc43)c2=O)cc1`, the survival was inactive: 69%.

As to `COc1cccc(CNC(=O)CCCn2nc(C)c3sc4ccccc4c3c2=O)c1`, the survival was inactive: 84%.

For `COc1ccc(NC(=O)c2cc3c(=O)n(Cc4cccs4)ccc3nc2C)cc1`, the survival is inactive: 75%.

For `O=C(c1cc(-c2cccc(Cl)c2)on1)N1CCCCC1`, the survival was active: 46%.

On to `Cc1ccc(NC(=O)c2c(NC(=O)c3ccc(F)cc3)sc3c2CCCC3)cc1C`, for which the survival was inactive: 67%.

With `COc1ccc(OC)c(NC(=O)Cn2c(=O)n(-c3cccc(C)c3)c(=O)c3c2c2cc(C)ccc2n3C)c1`, the survival was inactive: 64%.

Turning to `O=C(CCC1CCCC1)N1CCc2c([nH]c3ccccc23)C1c1ccc(F)cc1` (configuration not stated), the survival was inactive: 99%.

With `CC(=O)c1ccc(NC(=O)c2cn(-c3ccccc3)nc2-c2ccc(Br)cc2)cc1`, the survival was inactive: 75%.

With `COc1cccc(CN(Cc2nnnn2C2CCCCC2)CC2CCCO2)c1` (configuration not stated), the survival is inactive: 82%.

For `CCc1cccc(C)c1NC(=O)C1CCN(S(=O)(=O)c2c(C)noc2/C=C/c2c(C)cc(C)cc2C)CC1`, the survival was inactive: 81%.

`COc1ccc(C)cc1NC(=O)Cn1c(=O)oc2cc(S(=O)(=O)N3CCCCC3)ccc21`: the survival is inactive: 86%.

On to `Cc1ccc(Nc2ccc3cc(S(=O)(=O)N4CCCCC4)ccc3n2)cc1F`, for which the survival was inactive: 79%.

`CCn1cc2nc(SCC(=O)Nc3ccc(OC)c(Cl)c3)n(Cc3ccc(OC)cc3)c(=O)c2n1`: the survival was inactive: 143%.

For the compound `CCOC(=O)c1ccc(NC(=O)CSc2nc(-c3ccc(OC)cc3)cc(C(F)(F)F)c2C#N)cc1`, the survival is inactive: 125%.

For the compound `O=C(Cc1ccccc1)N(Cc1cccnc1)c1nc2c(Cl)cccc2s1`, the survival was inactive: 84%.

With `COc1ccc(N(CC(=O)N2CCN(c3ccccc3)CC2)S(=O)(=O)c2c(C)nn(C)c2C)cc1`, the survival was inactive: 69%.

With `COc1ccc(-c2cc3nc(C)c(CCC(=O)NCc4ccccc4Cl)c(C)n3n2)c(OC)c1`, the survival is inactive: 97%.

`COc1ccccc1Nc1nc(-c2ccc(F)cc2)c2c(n1)-c1ccccc1OC2`: the survival is inactive: 58%.

Regarding `Cc1ccc(CCNC(=O)CN(c2cc(C)cc(C)c2)S(=O)(=O)c2c(C)noc2C)cc1`, the survival was inactive: 133%.

As for `COc1ccccc1CNC(=O)CCCn1c(=O)c2ccccc2n(Cc2ccc(F)cc2)c1=O`, the survival is inactive: 123%.

Regarding `COc1ccccc1NC(=O)c1c(C)cc(C)nc1SCC(=O)Nc1ccc(C)c(C)c1`, the survival was inactive: 49%.

With `COc1cccc(-n2ccn(CC(=O)NCc3ccc(C)cc3)c(=O)c2=O)c1`, the survival was inactive: 90%.

Take `Cc1ccc(NC(=O)Nc2cccc(C)n2)cc1`: the survival was inactive: 69%.

Take `Cc1cc(C)c(NS(=O)(=O)c2ccc3c(c2)CC(C)N3C(=O)C2CCC2)c(C)c1` (configuration not stated): the survival is inactive: 74%.

In the case of `CCOc1ccc(C2CC(=O)NC(NC(=O)c3cccc(Cl)c3)=N2)cc1` (configuration not stated), the survival was inactive: 92%.

On to `C=CCn1c(SCC(O)Cn2c3ccccc3c3ccccc32)nnc1-c1ccco1` (configuration not stated), for which the survival is inactive: 49%.

With `Cc1ccc(C)c(Cn2cnc3c(cnn3-c3ccc(F)cc3)c2=O)c1`, the survival was inactive: 99%.

As to `CCN(Cc1ccccc1)S(=O)(=O)c1ccc2c(c1)CCCN2C(C)=O`, the survival is inactive: 93%.

Regarding `CCc1ccc(NC(=O)N2c3ccccc3Sc3ccccc32)cc1`, the survival was active: -2%.

As to `Cc1ccc(Cn2c(CCCNC(=O)c3ccco3)nc3ccccc32)cc1`, the survival was inactive: 77%.

Consider `Cc1nc2c(-c3ccccc3)c(C)nn2c(C)c1CCC(=O)NCc1ccc(Cl)cc1`, for which the survival was inactive: 104%.

With `COc1ccc(CCNS(=O)(=O)c2ccc(N3CCCCS3(=O)=O)cc2)cc1OC`, the survival was inactive: 69%.

As for `CCOC(=O)c1nnn(CC(=O)Nc2cc(C)cc(C)c2)c1C(=O)OCC`, the survival was inactive: 68%.

As for `COc1ccccc1CNC(=O)c1cc2cccc3c2n1CC(C)S3` (configuration not stated), the survival is inactive: 102%.

On to `CS(=O)(=O)N(CC(=O)NCCSCc1ccccc1)c1cc(C(F)(F)F)ccc1Cl`, for which the survival was inactive: 115%.

Turning to `O=C(Cn1cnc2onc(-c3ccc(F)cc3)c2c1=O)Nc1cccc(C(F)(F)F)c1`, the survival was inactive: 102%.

In the case of `COc1ccc(NC(=O)CC2C(=O)N(c3ccccc3)C(=O)N2C2CCCCC2)cc1` (configuration not stated), the survival was inactive: 72%.

In the case of `CCOC(=O)c1ccc(NC(=O)c2nc(SC(C)C)ncc2Cl)cc1`, the survival is inactive: 107%.

For `CC(C)CN(CCNC(=O)c1cn(C)c2ccc(S(=O)(=O)N3CCOCC3)cc2c1=O)CC(C)C`, the survival was inactive: 89%.

`C=CCNc1nc(NCCN2CCOCC2)nc(OC)n1`: the survival is inactive: 101%.

In the case of `Cc1ccccc1NC(=O)Cn1c(=O)n(Cc2ccc3c(c2)OCO3)c(=O)c2ccc(C(=O)NC3CCCCC3)cc21`, the survival was inactive: 96%.

On to `Cc1ccc2cccc(NC(=O)c3ccc(-c4cccc(Cl)c4Cl)o3)c2n1`, for which the survival was inactive: 55%.

For `CC(C)N(C(=O)CSc1nnc(-c2ccco2)n1C)C(C)C`, the survival was inactive: 108%.

On to `CSCCC(NS(=O)(=O)c1ccc2c(c1)oc(=O)n2C)C(=O)NCc1ccccc1` (configuration not stated), for which the survival is inactive: 105%.

As for `Cc1cc(-c2ccccc2)n2nc(-c3cccc(Br)c3)cc2n1`, the survival is active: 14%.

Turning to `CC1CCN(C(=O)CN2c3ccc(C(C)C)cc3-c3ccccc3S2(=O)=O)CC1`, the survival was inactive: 87%.

`Cn1nc(C(=O)NCc2ccc(F)cc2)c2c1-c1ccccc1SC2`: the survival is inactive: 68%.

For `COc1nc(N(C)C)nc(N(C#N)CN2C(=O)c3ccccc3S2(=O)=O)n1`, the survival was inactive: 112%.

Consider `CCC(=O)N1CCN(C(=O)CC)C1c1ccccc1`, for which the survival is inactive: 93%.

For `CCOC(=O)c1cc(C)n(CC2CCC(C(=O)Nc3ccc(C)cc3)CC2)c1C` (configuration not stated), the survival is inactive: 98%.

Regarding `CCc1ccc(NC(=O)c2ccc3nc(C(C)C)oc3c2)cc1`, the survival was inactive: 93%.

Consider `Cc1ccccc1NC(=O)C1C(c2cccs2)C(C#N)=C(SCC(N)=O)NC1(C)O` (configuration not stated), for which the survival is inactive: 84%.

Consider `CSc1ccc(-c2nc3c(C)cccn3c2Nc2ccc3c(c2)OCCO3)cc1`, for which the survival was inactive: 83%.

Turning to `COc1cc(OC)c(NC(=O)Cn2c(=O)cc(C)c3c(C)nn(-c4ccc(C)cc4)c32)cc1Cl`, the survival was inactive: 129%.

For `O=C(NCc1ccc(F)cc1)C1CCCCN1S(=O)(=O)c1ccc(F)cc1` (configuration not stated), the survival was active: 32%.

On to `CSc1ccc(C(=O)Nc2ccc(-c3nc4ccccc4s3)c(O)c2)cc1`, for which the survival is active: 32%.

Turning to `CCC(=O)N1CCc2cc(S(=O)(=O)CCC(=O)N3CCN(c4cccc(Cl)c4)CC3)ccc21`, the survival is inactive: 62%.
